{"source": "PubChem BioAssay AID686978", "about": "(National Center for Advancing Translational Sciences (NCATS), 2013)", "note": "In all, about 420,000 compounds went through this assay and about 64,000 (15%) were called active. Inconclusive results, whose numbers are uncertain, are shown with a selection of clear calls. Calls follow the shape of the dose curve; as a rule, active = well fitted inhibition curve with a large enough effect; inconclusive = small, poorly fitted or top-dose-only effect; inactive = flat fitted curve, though single readings scatter. Potencies of inconclusive entries are left out as doubtful fits. % is scaled to controls: 0 for no effect and ±100 for the full control effect; potency is read from the fitted curve at half-maximal effect; tags tell the direction and shape of the fitted curve.", "data": [{"assay": "qHTS for Inhibitors of human tyrosyl-DNA phosphodiesterase 1 (TDP1): qHTS in cells in absence of CPT; also: nearly all actives have a fitted effect of over 55% in size", "conditions": "DT40 Tdp1-/- hTDP1 cells, no CPT, ATP luminescence, 48 h; activity change, negative = growth inhibition: at 46.2 µM (top of the series) unless noted", "procedure,_shortened": "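Camptothecin absent (DMSO only). Human TDP1-complemented DT40 knockout cells, 400 cells/well, 37 °C for minimum 48 hr; ATP measured via CellTiter-Glo, 30 min dark incubation, luminescence.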", "values": [{"smiles": "O=[N+]([O-])c1ccc2c(c1)c(-c1ccccc1)nc1nncn12", "Potency": "active: 7.31 µM"}, {"smiles": "Cc1ccc(-c2cc(C(=O)NCCc3ccccc3)c3ccccc3n2)cc1C", "Potency": "inconclusive [inhibitor, single point]"}, {"smiles": "Cc1ccccc1NC(=O)Cn1c(=O)n(Cc2ccco2)c(=O)c2cccnc21", "Potency": "inconclusive [inhibitor, single point]"}, {"smiles": "CCCC(C(=O)NC1CCCC1)N(Cc1ccc(OC)cc1)C(=O)c1snc(C(N)=O)c1N", "note": "(centres undefined)", "Potency": "inconclusive [inhibitor, single point]"}, {"smiles": "O=[N+]([O-])c1ccccc1S(=O)(=O)N1CCN(Cc2cc3c(cc2O)OCO3)CC1", "Potency": "inconclusive [inhibitor, partial curve]"}, {"smiles": "CCc1ccc2c(c1)c(=O)c(C(=O)c1ccc(C)cc1)cn2CC(=O)Nc1ccc2c(c1)OCCO2", "activity change, negative = growth inhibition": "inactive: 1.01%"}, {"smiles": "O=C(NC1CC1)C1=C[C@@H](c2coc3ccccc3c2=O)C[C@@H](OCCCCO)O1", "Potency": "inconclusive [inhibitor, single point]"}, {"smiles": "CCOC(=O)[C@H]1[C@H]2COc3ccc(Cl)cc3[C@@H]2N2C(=O)c3ccc(F)cc3NC(=O)[C@@]12C", "Potency": "inconclusive [inhibitor, single point]"}, {"smiles": "COCC(=O)n1nc(NCc2ccc(OC)cc2)nc1NCc1ccc(OC)cc1", "Potency": "inconclusive [inhibitor, single point]"}, {"smiles": "CC(C)c1ccc(NC(=O)CNC(=O)Cn2ccc3ccccc3c2=O)cc1", "Potency": "inactive"}, {"smiles": "Cc1cc(OCC(=O)NNC(=O)c2cccs2)ccc1Br", "activity change, negative = growth inhibition": "inactive: 7.6%"}, {"smiles": "Cc1cc(C)c(NC(=O)CN(C)S(=O)(=O)c2ccc3c(c2)n(C)c(=O)c(=O)n3C)c(C)c1", "activity change, negative = growth inhibition": "inactive: 10.4%"}, {"smiles": "Cc1c2ccccc2cc[n+]1C", "activity change, negative = growth inhibition": "inactive: -15.9%"}, {"smiles": "COC(=O)c1[nH]c2ccccc2c1NC(=O)c1ccccc1[N+](=O)[O-]", "activity change, negative = growth inhibition": "inactive: 1.07%"}, {"smiles": "COCCNC(=O)c1ccccc1NC(=O)c1ccc(Cl)c(S(=O)(=O)Nc2ccc(C)cc2C)c1", "Potency": "inconclusive [inhibitor, single point]"}, {"smiles": "CN(CCCN1CCOCC1)Cc1cn(C)nc1-c1ccccc1F", "activity change, negative = growth inhibition": "inactive: -9.69%"}, {"smiles": "N=c1c2c(-c3ccccc3)c(-c3ccccc3)oc2ncn1Cc1ccco1", "Potency": "active: 20.6 µM"}, {"smiles": "CC1(C)Oc2ccc(NC(=O)C3COc4ccccc4O3)cc2O1", "note": "(centres undefined)", "Potency": "inconclusive [inhibitor, single point]"}, {"smiles": "Cc1ccc(Cl)cc1NC(=O)C1CCCN(S(=O)(=O)c2c(C)noc2/C=C/N(C)C)C1", "note": "(centres undefined)", "Potency": "inconclusive [inhibitor, single point]"}]}]}
